Data: the supplement of paper PMC10126150
Values marked as one replicate rest on one cluster of the flow cell; about a third of the high ones do not repeat.

Tested on: ATP
Experiment: switch fluorescence ratio, 500 uM ATP over buffer (Cy3 cluster intensity, sum of 5 cycles each) (fold (ratio)); higher = stronger signal-on switching upon ATP binding; sequences stand for … in TCGTCGGCAGCGTCAGATGTGTATAAGAGACAGTTTTTTTTTTTTTTTTTTTTTTTTT…TC
Details: aptamer strand: ATP DNA aptamer (quencher-CACCTGGGGGAGTATTGCGGAGGAAGG + anchor), 100 nM annealed; ATP concentration: 500 uM; one replicate
Method in brief: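 The fluorescence ratio divides summed target-cycle Cy3 intensity by summed buffer-cycle Cy3 intensity for each cluster and is averaged per switch-domain sequence. Cy3-labelled switching-strand clusters on a modified Illumina MiSeq flow-cell were annealed to 100 nM quencher-labelled ATP aptamer, then imaged in selection buffer and again after 15 min with 500 uM ATP at 22 °C. Five such cycles were run, with NaOH stripping and re-annealing between them, and clusters outside 100-1000 RFU were excluded.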
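Further: ATP exposure 15 min at 22 °C before imaging.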

| Sequence | switch fluorescence ratio |
| --- | --- |
| GCGCTAATTA | 0.993 |
| TGTGGGTAAC | 1.07 |
| CGTGGGTATG | 1.01 |
| ACTGTATGGT | 1.03 |
| CGTGAAGATT | 1.01 |
| TTGGAGATTA | 1.01 |
| AATGCACTTA | 1.08 |
| TTTACAGTGA | 1.01 |
| TACGAGGGGC | 0.988 |
| CTTTATCTTG | 0.975 |
| AAAAACAGAT | 0.978 |
| GCGTCATAAC | 1.23 |
| GACTGTTCAG | 0.964 |
| TGAGGAAACT | 1 |
| TTCATAGATC | 0.989 |
| GGGTGTACCA | 0.973 |
| TAGCTGAACC | 0.95 |
| CCATTGCGCG | 1.02 |
| GGATTAAGGT | 1.01 |
| AAAGGCATCT | 1.03 |
| ATTAGGGGCG | 1.08 |
| ATTATAGCCC | 0.929 |
| AAATACGCCT | 1.2 |
| GGCATAAAGT | 0.976 |
| GGGGCCTATG | 1.02 |
| GACTGTGATA | 0.989 |

| Sequence | switch fluorescence ratio |
| --- | --- |
| CTTATCGGTG | 1.02 |
| AGGGCTGTTG | 1.01 |
| CACTACGACC | 1.44 |
| ACCGGACCC | 1.4 |
| GCCTTCAGCT | 0.968 |
| CGTGTCTACA | 0.988 |
| GAAAATAATA | 1.01 |
| AGAATAACGA | 1.01 |
| CGGGGAGCG | 0.961 |
| ATGCTAGCTT | 1.04 |
| AAGGTTGAGC | 1.02 |
| ATGGCTCTAC | 1.04 |
| TGCGTCGAGT | 1 |
| GGACCTTGTT | 1.03 |
| AGATACCGCC | 1.22 |
| GTGCTAGAGG | 1.02 |
| GGTTACGGTC | 1.08 |
| CACTAGTCCC | 1.03 |
| TTCGATCTAA | 1.01 |
| AGCCTCCCAC | 2.99 |
| CGAGGCTGTC | 0.967 |
| CCCGTATGGG | 1.03 |
| GATCTCCTGC | 1.12 |
| GGCACGGTTA | 1.11 |
| ATTAACAGAT | 1.03 |
| GGATCGGTCC | 0.994 |

| Sequence | switch fluorescence ratio |
| --- | --- |
| GTCAGTACTG | 1.02 |
| TTCCAAGGCG | 1.02 |
| CTCCATGAAT | 1.04 |
| CGTCCAAATT | 1.24 |
| TCATTATGGC | 2.01 |
| AGTTGCCCCA | 0.972 |
| TGCGCGACAT | 1.09 |
| CGCACTGGCC | 1.14 |
| AAACTAATTG | 0.996 |
| GCCCGTGATC | 1.59 |
| TAGATGTGTG | 0.994 |
| ATTAAGACGA | 0.983 |
| TCCGCAGGTT | 1.22 |
| TTGATGTCGG | 0.971 |
| ATGTACCGCT | 1.05 |
| TCCGGTAAAT | 1.06 |
| GACGCCTAGC | 1.29 |
| TTCGCTGAGA | 1.05 |
| GCTTGTGAGT | 0.993 |
| AAACGCACTA | 1.27 |
| TCATCGTACC | 1.21 |
| ATAAAGAGAT | 0.997 |
| TTACGTCAAC | 1.31 |
| ACAAGCTTTG | 0.994 |
| GGTCCCATGT | 1.03 |
| ATTGGAGCA | 1.05 |

| Sequence | switch fluorescence ratio |
| --- | --- |
| AGCGCGCAAT | 1.2 |
| AAATATAGAA | 0.961 |
| TCAGCTTTC | 1.15 |
| GTATGTAGGT | 0.958 |
| CGCGTAAACT | 1.08 |
| ACGGCGTATG | 0.996 |
| AACGGTCGAG | 0.965 |
| ACTGCTAACC | 1.13 |
| GCGGACCGTA | 1.04 |
| ACGGAGACTT | 1.13 |
| CGTACTAACG | 1.11 |
| ATTGGCTCTG | 0.986 |
| CCAGTGTCGA | 1.02 |
| TTCAGCTTAT | 1.61 |
| CTTTAATGGT | 0.993 |
| ACCTTCCCCT | 1.87 |
| AAGGATTCCG | 0.912 |
| TTCAGTCCCC | 1.07 |
| AGAGTCGACT | 0.945 |
| AACAAGAAGG | 1.01 |
| GCTCCAGTAG | 1.23 |
| TTGATATGTG | 0.962 |
| CCGGTGATGT | 1.02 |
| GTAAGGGCCT | 1.04 |
| TCGACGTACA | 1.36 |
| GACTAATCGA | 1 |

| Sequence | switch fluorescence ratio |
| --- | --- |
| AAGGAGACAT | 0.96 |
| AAAGTTGTCA | 0.967 |
| TTAGTAGGCG | 0.954 |
| AGGTGGTGAT | 0.989 |
| CGGGCGATCG | 1.05 |
| TGTGCCGTTG | 1.04 |
| CATGTGGTTC | 0.97 |
| TTAAGAAAGC | 1.05 |
| TCTGATTCTG | 0.983 |
| GCTTAATGC | 1.04 |
| TCACAGGTGT | 6.98 |
| TACGCTACCG | 1.27 |
| GGAATCCTCT | 1.02 |
| GCAGAATG | 0.978 |
| TCGTGGTGCG | 0.969 |
| AGCGACGCCT | 0.993 |
| AATAACTAAA | 1.01 |
| AGTCAGAGGG | 0.973 |
| TATGTTCCG | 0.993 |
| GATCGGGAA | 0.962 |
| CTGATCGCCT | 1.4 |
| CGGGGATTTA | 0.943 |
| TTATAACTCT | 0.981 |
| ATTCTCCCG | 1.04 |
| ATGAGTGGAC | 0.981 |
| ACGGCGGT | 1.11 |

| Sequence | switch fluorescence ratio |
| --- | --- |
| AAACTGCGGC | 1.04 |
| TAGCTGAATG | 0.996 |
| GAGGGATTGC | 0.954 |
| TTGCTGCCCG | 0.952 |
| TCGTCTTAAA | 1.01 |
| AACGGTGTCT | 1.02 |
| GCAGTGTGTT | 1.01 |
| GACCCGGTAC | 2.27 |
| TACGGTACTG | 1.33 |
| CAACGGTCGT | 0.993 |
| AACATCTGTT | 0.953 |
| GGTCTTTGAC | 0.939 |
| TTGTCTATTT | 0.975 |
| AGTCCGTTAT | 1.02 |
| GTCAACGGTA | 1.02 |
| ATGGCGGGA | 1 |
| TGTGCTGCCG | 1.07 |
| TGACGATGAC | 1.59 |
| AAATGCGACA | 0.993 |
| TTACCAAGTG | 1.03 |
| CGCCAGCCGG | 1.03 |
| TGGTGTGCAA | 1.09 |
| CTTACCCGGT | 1.06 |
| TTGACGGTAA | 1.14 |
| CTCACTGCAG | 0.987 |
| TCAACTTATC | 1.04 |

| Sequence | switch fluorescence ratio |
| --- | --- |
| AGGCTGGTAC | 1.06 |
| TTGCTCATG | 1 |
| GTCATAAAGG | 1 |
| TGGTGGGA | 0.966 |
| TAAGCCAGAC | 1.78 |
| TGATATGATT | 0.994 |
| AACAGTTTGC | 0.968 |
| AGCAGGGATC | 1.04 |
| AAAGTCCGTG | 0.985 |
| CATAAAGTTG | 1.04 |
| TCCTTTTCAA | 1.03 |
| TTAGTTTGG | 0.987 |
| CAGAGGTTTG | 0.978 |
| TATGTAGAAT | 1.01 |
| ATGCGCTGAG | 1.01 |
| CGAATGGAGA | 1.01 |
| AGATGCAATT | 1.07 |
| GTGTGAGTAT | 0.96 |
| CCTGTGCTG | 1.13 |
| ATCATAGCGC | 1.02 |
| TAGTAAGCGC | 0.952 |
| CGTCATCCTG | 1.06 |
| AGCAACACCG | 1.02 |
| TTAACAATGT | 1.01 |
| TTTGCCTGGG | 0.986 |
| GGAACGATTG | 0.972 |

| Sequence | switch fluorescence ratio |
| --- | --- |
| AACGTAGGAT | 1.01 |
| GGTTGACAGG | 1.01 |
| TACACGAACT | 1.45 |
| GCTTGATCTG | 1.01 |
| ACTCTCTCCC | 1.18 |
| GACAATGTA | 1.02 |
| ATGGAGGGG | 0.956 |
| GCCACCTGGA | 0.993 |
| GTCGACTATT | 1 |
| TGCGTCTGC | 1.06 |
| ATGTTAGAG | 1 |
| AAGCGCCTTG | 0.972 |
| GCTGTCCATA | 1.02 |
| CGGAGGCTGA | 1.02 |
| GCCTATTCGA | 0.952 |
| CTCAGGGGCC | 1.03 |
| CAAGTTCATA | 0.975 |
| TTCTGGGGAC | 1.92 |
| TACCGAACCG | 1.11 |
